Laboratory results as given in the supplement of paper PMC12217912.
The other results are listed elsewhere or left out. Sequences were assembled here from the parent chain. Inactive controls read about 0.05.

B1: TEV protease; numbered along this chain (parent)
chain: MGESLFKGPRDYNPISSSICHLTNESDGHTTSLYGIGFGPFIITNKHLFRRNNGTLVVQSLHGVFKVKDTTTLQQHLVDGRDMIIIRMPKDFPPFPQKLKFREPQREERICLVTTNFQTKSMSSMVSDTSCTFPSGDGIFWKHWIQTKDGQCGSPLVSTRDGFIVGIHSASNFTNTNNYFTSVPKNFMELLTNQEAQQWVSGWRLNADSVLWGGHKVFMVKPEEPFQPVKEATQL

Variants of: B1
Experiment: raw area under fraction-flipped curve 0-4 h after induction (AUC4h, not background-subtracted), DNA-recorder readout of cleavage of the substrate (dimensionless); higher = more cleavage of the substrate by the protease variant
Conditions: temperature: 34 °C; time window: 0-4 h after rhamnose induction
Experimental: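 In vivo DNA recorder in E. coli TOP10(DE3) ΔrhaA at 34 °C. Each TEVp single-site mutant (parent TEVp 0) is paired with a single-site variant of the 7-mer TEVs (canonical ENLYFQ|S). The substrate sits between flexible linkers in a Bxb1-sfGFP-TEVs-SsrA fusion, so cleavage stabilises Bxb1 and speeds flipping of a recombination array, read by NGS. The value is the raw area under the fraction-flipped curve over 0-4 h after rhamnose induction (AUC4h), with ≥20 reads per time point. It is not background-subtracted; inactive controls average about 0.047.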
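Further: Bxb1 expression induced with 0.2% (w/v) L-rhamnose at OD600 near 0.5, cultures sampled hourly, flipped fraction per protease–substrate barcode pair counted by paired-end Illumina sequencing.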

Row | Variant | area with substrate ENLCFQS | area with substrate ENLDFQS | area with substrate ENLFFQS | area with substrate ENLHFQS | area with substrate ENLIFQS | area with substrate ENLKFQS | area with substrate ENLLFQS | area with substrate ENLNFQS | area with substrate ENLPFQS | area with substrate ENLQFQS | area with substrate ENLSFQS | area with substrate ENLVFQS | area with substrate ENLAFQS | area with substrate ENLRFQS | area with substrate ENLTFQS | area with substrate ENLEFQS | area with substrate ENLMFQS | area with substrate ENLGFQS | area with substrate ENLWFQS
1 | R51F | 0.0744 | 0.0671 | 0.0911 | 0.0768 | 0.0984 | 0.0819 | 0.086 | 0.0681 | 0.0626 | 0.0702 | 0.0246 | 0.0941 | – | – | – | – | – | – | –
2 | K221V | – | 0.0667 | – | 0.0689 | 0.0946 | 0.0562 | 0.0373 | – | 0.0568 | – | 0.0777 | – | 0.0663 | 0.0703 | 0.05 | – | – | – | –
3 | G202Y | 0.0569 | 0.0547 | – | 0.0566 | – | – | 0.0645 | – | 0.0634 | – | 0.0066 | 0.0595 | 0.0609 | 0.0622 | – | 0.0693 | 0.0754 | – | –
4 | G8Q | 0.0648 | 0.0593 | 0.0832 | – | – | 0.0869 | 0.0811 | – | – | – | – | – | – | – | – | – | – | – | –
5 | E25L | 0.0782 | 0.0618 | 0.0881 | 0.0679 | 0.0724 | 0.0824 | 0.0936 | 0.0574 | 0.0564 | 0.076 | 0.0663 | – | – | 0.089 | – | 0.0691 | – | 0.0777 | 0.0572
6 | R10H | 0.065 | 0.0666 | 0.0815 | 0.0617 | 0.0717 | 0.0619 | – | 0.0718 | 0.0475 | 0.0589 | 0.0608 | – | – | – | 0.0633 | – | 0.0721 | 0.071 | 0.0814
7 | G39N | 0.0451 | 0.0379 | 0.037 | 0.0406 | 0.0416 | – | 0.037 | 0.0458 | 0.0463 | 0.0448 | 0.0438 | 0.0468 | – | 0.0621 | – | 0.0401 | – | 0.0458 | 0.0319
8 | I15H | 0.0714 | 0.0684 | 0.0992 | 0.0653 | 0.0692 | 0.0804 | 0.0619 | 0.0643 | 0.0608 | 0.0823 | 0.0762 | 0.0825 | – | – | – | 0.0562 | 0.0909 | – | –
9 | F6M | 0.0743 | 0.0696 | 0.0738 | 0.0648 | – | 0.0663 | – | 0.076 | 0.0621 | 0.0353 | 0.0474 | 0.0907 | – | 0.0519 | – | – | – | – | 0.0933
10 | G28F | 0.0598 | – | 0.0878 | 0.092 | 0.093 | 0.0622 | – | 0.063 | 0.0619 | – | 0.0649 | 0.0643 | – | – | – | 0.0652 | – | – | 0.0705
11 | E231Q | – | 0.0721 | 0.0824 | 0.0583 | – | 0.0809 | – | 0.062 | 0.0614 | 0.103 | 0.0771 | 0.0924 | 0.0553 | – | – | – | 0.0662 | 0.0961 | 0.101
12 | N45F | 0.0617 | 0.0688 | 0.0623 | 0.0571 | – | 0.0443 | – | 0.0691 | 0.0649 | 0.0781 | 0.0534 | 0.0628 | – | 0.053 | – | – | 0.0626 | 0.0709 | 0.0542
13 | F226I | 0.0816 | 0.07 | 0.0803 | 0.067 | – | 0.0934 | – | 0.0744 | 0.0687 | 0.0773 | 0.0685 | 0.0849 | 0.074 | – | – | – | 0.0822 | 0.0702 | –
14 | I42Q | 0.04 | 0.0439 | 0.045 | 0.0467 | 0.0465 | 0.0412 | – | 0.0545 | 0.0368 | 0.0332 | 0.0364 | – | – | – | – | – | – | 0.0516 | –
